# Reference: ChEMBL document CHEMBL4888484, “Replenishing the malaria drug discovery pipeline: Screening and hit evaluation of the MMV Hit Generation Library 1 (HGL1) against asexual blood stage Plasmodium falciparum ,using a nano luciferase reporter read-out” (2022)
# Out of some 150,000 compounds screened, about 540 (0.36%) showed an effect of 50% or more. The list shows a part of the results.
# System: Plasmodium falciparum
# Experiment: Primary screen in NF54 nanoGlo assay, in single point, at 2uM, 72h; a lower Z score goes with more inhibition
# Assay type: functional, Erythrocyte
# Conditions: timepoint 72 hour
SMILES,% Inhibition,Z score
CN1CC[C@H](NS(=O)(=O)NCc2ccccc2)[C@H](Cc2ccccc2)C1,-8%,1.39
CC(C)Cn1ccnc1NCc1cnnn1C,1%,-0.08
Cc1nn(C)c2c(=O)n(CC(=O)NCc3ccc(Br)cc3)ccc12,-13%,1.28
O=c1c(Cl)c(NCCO)ncn1-c1ccccc1,-2%,0.2
C[C@H](NC(N)=O)C(=O)N1CCCCCC1c1ncon1 (stereo not given in full),29%,-3.73
CN(Cc1ccncc1)C(=O)c1cccnc1,-14%,2.05
Cc1cnc(NC(=O)[C@@H]2CNC(=O)N2)s1,-5%,0.83
CCC[C@@H](C(=O)NCCN1CCOCC1)n1c(Cc2ccc(Cl)cc2Cl)nc2ccccc21,-7%,1.01
Cc1nc(C)c(COc2nc(C(C)(C)C)no2)s1,-7%,1.04
O=C(Cn1c(=O)cnc2ccccc21)N1CCCN(c2ccc(Cl)c(Cl)c2)CC1,-5%,0.47
COC1(C)CC(N(C)C(=O)NCc2cnc(C)s2)C1(C)C (stereo not given),-3%,0.49
Cc1ccc(CS(=O)(=O)N2CC3(C[C@H](N4CCCCC4)CO3)C2)cc1,-9%,1.4
COc1cc(CN2C[C@H]3C[C@H](O)[C@@H](O)C[C@H]3C2)ccc1OCC=C(C)C,-18%,2.06
Cc1[nH]c2c(c1C(=O)NCCc1nc3ccccc3o1)C(=O)CCC2,-25%,4.62
COc1nccc(N(C)C)c1NC(=O)c1cnc(C(C)C)s1,-9%,0.72
Clc1cnc(NCCCOC2CCCC2)nc1,-3%,0.48
CC(C)CCN1CC(O)=C(c2nc(-c3ccccc3)cs2)C1=N,2%,-0.25
O=C(COc1ccccc1)NCC(=O)Nc1cccc2ccccc12,6%,-1.09
CCOc1ccccc1NC(=O)C(=O)NCC1CCCCC1,-10%,2.02
O=C1[C@@H](NS(=O)(=O)c2ccc3c(c2)OCCCO3)CCCN1CCO,-8%,0.89
Cc1cnc(NCc2ccc3c(c2)OCCO3)cn1,0%,0.09
O=C(NCc1ccnc2ccccc12)[C@H]1CC1(Cl)Cl,-10%,1.13
O[C@H]1CN(c2ccc(C(F)(F)F)cn2)CC[C@@H]1Nc1ncccn1,-16%,1.76
CCN(Cc1cnn(C)c1)c1cc(N2CCN(C)C(=O)C2)ncn1,-2%,0.25
Cc1cccc(C)c1NC(=O)CN(CCOc1ccccc1Cl)CC(=O)Nc1c(C)cccc1C,-15%,1.3
O=C(CN1CCCC[C@@H]1CN1CCCC1=O)NCC1CCCCC1,1%,-0.05
CCCN1C(=O)N[C@@H](Cc2ncnn2-c2cccnc2)C1=O,-6%,0.83
CC[C@H](O)Cn1nc(CC(N)=O)nc1-c1ccccc1Oc1ccccc1,-6%,1.19

SMILES,% Inhibition,Z score
CCn1ccc(C(=O)N[C@H]2CCN(Cc3ccccc3)C2)cc1=O,3%,-0.42
NC(=O)c1ccc(NCc2ccc(Cn3ccnc3)cc2)nn1,-3%,0.26
CC(C)N1C[C@@H](C(=O)NC2Cc3ccccc3C2)CC1=O,-16%,1.52
Cc1ccc(CC(=O)N2CCC[C@H](N3CCCS3(=O)=O)C2)cn1,-9%,1.26
CCN(C(=O)c1coc(C)c1)C1CN(C(=O)c2coc(C)c2)C1,-2%,0.36
CCN(CCC#N)C(=O)CCc1ccc(Cl)cc1,-12%,1.58
CC[C@H](C)NC(=O)N1CCOc2ccc(CN(CC)CC)cc2C1,-13%,1.43
CC(C)Oc1cccc(CC(=O)N(CC#N)CC#N)c1,4%,-0.82
COc1cccc2c1Oc1ccccc1N=C2N1CCCN(C(=O)CC(C)(C)C)CC1,4%,-0.51
Cc1cc(C)n(CCCNCc2cccc(C#N)c2)n1,-2%,0.31
Cc1noc(C2CN(C(=O)[C@@H]3CCCN3Cc3ccc(F)cc3)C2)n1,-2%,0.22
Nc1nc2c(c(N3CCN(Cc4ccco4)[C@@H](CCO)C3)n1)CCNC2,-6%,0.56
CCOC(=O)Cc1cnc(NC(=O)N2CCOC[C@H]2c2ccnn2C)s1,2%,-0.2
CC(C)N1C[C@@]2(CCCN(c3nc(-c4ccccc4)no3)C2)CCC1=O,8%,-1.38
NS(=O)(=O)c1cccc(NC(=O)N(Cc2cccnc2)C2CCCCC2)c1,-4%,0.57
Cc1cc(=O)c(C(=O)N2CCC(C(=O)Nc3ccc4c(c3)OCO4)CC2)nn1-c1ccccc1,21%,-2.43
C[C@H](NCCc1cnn(C)c1)c1ccc(S(C)(=O)=O)c(F)c1,-9%,1.34
COCCN1C(=O)CC[C@]2(CNC(=O)c3cccnc3C)CCC[C@@H]12,-12%,1.64
CCN(C(C)=O)c1ccc(Oc2nc(OC)cc(OC)n2)cc1,-7%,1.36
Cc1n[nH]c(C)c1CCNC(=O)CCC(F)(F)F,-9%,0.86
COc1ccccc1N1CCN(CC(=O)Nc2nnc(C)s2)C1=O,-1%,0.18
COCCO[C@H]1[C@H](NC(=O)C(C)(C)C)c2ccccc2C12CCNCC2,-12%,1.57
Cn1c(=O)c2ncc(OCC(=O)c3ccccc3)nc2n(C)c1=O,11%,-1.26
O=C(NC[C@H]1C[C@@H]1C(F)(F)F)c1cncnc1-c1ccccc1,-2%,0.41
Cc1ccccc1Nc1nc(-c2cnc(N3CCC(C)CC3)nc2C)cc(=O)[nH]1,-8%,1.39
C[C@H]1c2ccsc2CCN1C(=O)C1CCCC1,-7%,1.02
O=C(Nc1cccc2ncccc12)c1ccc(OC2CCOCC2)nc1,0%,0.08
